# Measurements reported in the supplement of paper PMC8728848.
# The list shows a part of the results.
# Key:
# Experiment in all cases: glycan array binding signal (z-score within array); higher = stronger binding
# Settings in all cases: glycan notation: IUPAC condensed, linker removed
# [1] = target: Fuc(a1-2)Gal(b1-4)GlcNAc(b1-3)Gal(b1-4)GlcNAc(b1-3)Gal(b1-4)GlcNAc
# Procedure, shortened: (§1)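 Arrays were curated from the Consortium for Functional Glycomics database, 3228 in total, and kept only where the protein sequence was available. Binding is expressed as a within-array Z-score. This score was averaged across arrays of the same protein sequence at different concentrations or buffers and across linkers, and negative values can be read as non-binding.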
# [2] = target: Fuc(a1-2)Gal(b1-4)GlcNAc(b1-3)GalNAc
# Procedure, shortened: as §1
# [3] = target: Fuc(a1-2)Gal(b1-4)GlcNAc(b1-3)[Fuc(a1-2)Gal(b1-4)GlcNAc(b1-6)]GalNAc
# Procedure, shortened: as §1
# [4] = target: Fuc(a1-2)Gal(b1-4)GlcNAc(b1-3)[Fuc(a1-3)[Gal(b1-4)]GlcNAc(b1-6)]Gal(b1-4)Glc
# Procedure, shortened: as §1
# [5] = target: Fuc(a1-2)Gal(b1-4)GlcNAc(b1-6)GalNAc
# Procedure, shortened: as §1
# [6] = target: Fuc(a1-2)Gal(b1-4)GlcNAc6S
# Procedure, shortened: as §1
# [7] = target: Fuc(a1-2)Gal(b1-4)[Fuc(a1-3)]GlcNAc
# Procedure, shortened: as §1
# [8] = target: Fuc(a1-2)Gal(b1-4)[Fuc(a1-3)]GlcNAc(b1-2)Man(a1-3)[Fuc(a1-2)Gal(b1-4)[Fuc(a1-3)]GlcNAc(b1-2)Man(a1-6)]Man(b1-4)GlcNAc(b1-4)[Fuc(a1-6)]GlcNAc
# Procedure, shortened: as §1
# [9] = target: Fuc(a1-2)Gal(b1-4)[Fuc(a1-3)]GlcNAc(b1-2)[Fuc(a1-2)Gal(b1-4)[Fuc(a1-3)]GlcNAc(b1-4)]Man(a1-3)[Fuc(a1-2)Gal(b1-4)[Fuc(a1-3)]GlcNAc(b1-2)Man(a1-6)]Man(b1-4)GlcNAc(b1-4)GlcNAc
# Procedure, shortened: as §1
# [10] = target: Fuc(a1-2)Gal(b1-4)[Fuc(a1-3)]GlcNAc(b1-3)Gal(b1-4)[Fuc(a1-3)]GlcNAc
# Procedure, shortened: as §1
# [11] = target: Fuc(a1-2)Gal(b1-4)[Fuc(a1-3)]GlcNAc(b1-3)Gal(b1-4)[Fuc(a1-3)]GlcNAc(b1-3)Gal(b1-4)[Fuc(a1-3)]GlcNAc
# Procedure, shortened: as §1
# [12] = target: Fuc(a1-2)Gal(b1-4)[Fuc(a1-3)]GlcNAc(b1-3)GalNAc
# Procedure, shortened: as §1
# [13] = target: Fuc(a1-2)Gal(b1-4)[Fuc(a1-3)]GlcNAc(b1-3)[Neu5Ac(a2-6)Gal(b1-4)GlcNAc(b1-6)]Gal(b1-4)Glc
# Procedure, shortened: as §1
# [14] = target: Fuc(a1-2)Gal3S(b1-4)GlcNAc
# Procedure, shortened: as §1
# [15] = target: Fuc(a1-2)Gal6S(b1-3)GlcNAc
# Procedure, shortened: as §1
# [16] = target: Fuc(a1-2)Gal6S(b1-3)GlcNAc6S
# Procedure, shortened: as §1
# Fuc(a1-2)Gal6S(b1-4)Glc = target: Fuc(a1-2)Gal6S(b1-4)Glc
# Procedure, shortened: as §1
# [17] = target: Fuc(a1-2)Gal6S(b1-4)Glc6S
# Procedure, shortened: as §1
# Fuc(a1-2)[Gal(a1-3)]Gal = target: Fuc(a1-2)[Gal(a1-3)]Gal
# Procedure, shortened: as §1
# [18] = target: Fuc(a1-2)[Gal(a1-3)]Gal(b1-3)GalNAc
# Procedure, shortened: as §1
# [19] = target: Fuc(a1-2)[Gal(a1-3)]Gal(b1-3)GalNAc(b1-3)Gal(a1-4)Gal(b1-4)Glc
# Procedure, shortened: as §1
# [20] = target: Fuc(a1-2)[Gal(a1-3)]Gal(b1-3)GlcNAc
# Procedure, shortened: as §1
# [21] = target: Fuc(a1-2)[Gal(a1-3)]Gal(b1-3)GlcNAc(b1-2)Man(a1-3)[Fuc(a1-2)[Gal(a1-3)]Gal(b1-3)GlcNAc(b1-2)Man(a1-6)]Man(b1-4)GlcNAc(b1-4)GlcNAc
# Procedure, shortened: as §1
# [22] = target: Fuc(a1-2)[Gal(a1-3)]Gal(b1-3)GlcNAc(b1-2)Man(a1-3)[Fuc(a1-2)[Gal(a1-3)]Gal(b1-3)GlcNAc(b1-2)Man(a1-6)]Man(b1-4)GlcNAc(b1-4)[Fuc(a1-6)]GlcNAc
# Procedure, shortened: as §1
# [23] = target: Fuc(a1-2)[Gal(a1-3)]Gal(b1-3)GlcNAc(b1-3)GalNAc
# Procedure, shortened: as §1
# [24] = target: Fuc(a1-2)[Gal(a1-3)]Gal(b1-3)GlcNAc(b1-6)GalNAc
# Procedure, shortened: as §1
# [25] = target: Fuc(a1-2)[Gal(a1-3)]Gal(b1-4)Glc
# Procedure, shortened: as §1
# [26] = target: Fuc(a1-2)[Gal(a1-3)]Gal(b1-4)GlcNAc
# Procedure, shortened: as §1
# [27] = target: Fuc(a1-2)[Gal(a1-3)]Gal(b1-4)GlcNAc(b1-2)Man
# Procedure, shortened: as §1
# [28] = target: Fuc(a1-2)[Gal(a1-3)]Gal(b1-4)GlcNAc(b1-2)Man(a1-3)[Fuc(a1-2)[Gal(a1-3)]Gal(b1-4)GlcNAc(b1-2)Man(a1-6)]Man(b1-4)GlcNAc(b1-4)GlcNAc
# Procedure, shortened: as §1
# [29] = target: Fuc(a1-2)[Gal(a1-3)]Gal(b1-4)GlcNAc(b1-2)Man(a1-3)[Fuc(a1-2)[Gal(a1-3)]Gal(b1-4)GlcNAc(b1-2)Man(a1-6)]Man(b1-4)GlcNAc(b1-4)[Fuc(a1-6)]GlcNAc
# Procedure, shortened: as §1
# [30] = target: Fuc(a1-2)[Gal(a1-3)]Gal(b1-4)GlcNAc(b1-3)GalNAc
# Procedure, shortened: as §1
# [31] = target: Fuc(a1-2)[Gal(a1-3)]Gal(b1-4)GlcNAc(b1-3)[Fuc(a1-2)[Gal(a1-3)]Gal(b1-4)GlcNAc(b1-6)]GalNAc
# Procedure, shortened: as §1
# [32] = target: Fuc(a1-2)[Gal(a1-3)]Gal(b1-4)GlcNAc(b1-6)GalNAc
# Procedure, shortened: as §1
# [33] = target: Fuc(a1-2)[Gal(a1-3)]Gal(b1-4)[Fuc(a1-3)]Glc
# Procedure, shortened: as §1
# [34] = target: Fuc(a1-2)[Gal(a1-3)]Gal(b1-4)[Fuc(a1-3)]GlcNAc
# Procedure, shortened: as §1
# [35] = target: Fuc(a1-2)[Gal(a1-3)]Gal(b1-4)[Fuc(a1-3)]GlcNAc(b1-3)GalNAc
# Procedure, shortened: as §1
binder,measurement,setting,value
diCBM40 CPF071 (Clostridium perfringens) (protein) MAHHHHHHVGTGSNDDDDKSPDPMLSSLGEYKDINLESSNASNITYDLEKYKNLDEGTIVVRFNSKDSKIQSLLGISNSKTKNGYFNFYVTNSRVGFELRNQKNEGNTQNGTENLVHMYKDVALNDGDNTVALKIEKNKGYKLFLNGKMIKEVKDTNTKFLNNIENLDSAFIGKTNRYGQSNEYNFKGNIGFMNIYNEPLGDDYLLSKTGETKALNGSELGSGSGLSSLGEYKDINLESSNASNITYDLEKYKNLDEGTIVVRFNSKDSKIQSLLGISNSKTKNGYFNFYVTNSRVGFELRNQKNEGNTQNGTENLVHMYKDVALNDGDNTVALKIEKNKGYKLFLNGKMIKEVKDTNTKFLNNIENLDSAFIGKTNRYGQSNEYNFKGNIGFMNIYNEPLGDDYLLSKTGETK,glycan array binding signal (z-score),[1],-0.289
same,glycan array binding signal (z-score),[2],-0.324
same,glycan array binding signal (z-score),[3],-0.266
same,glycan array binding signal (z-score),[4],-0.238
same,glycan array binding signal (z-score),[5],-0.304
same,glycan array binding signal (z-score),[6],-0.335
same,glycan array binding signal (z-score),[7],-0.251
same,glycan array binding signal (z-score),[8],-0.327
same,glycan array binding signal (z-score),[9],-0.316
same,glycan array binding signal (z-score),[10],-0.173
same,glycan array binding signal (z-score),[11],-0.064
same,glycan array binding signal (z-score),[12],0.079
same,glycan array binding signal (z-score),[13],-0.297
same,glycan array binding signal (z-score),[14],-0.323
same,glycan array binding signal (z-score),[15],-0.33
same,glycan array binding signal (z-score),[16],-0.259
same,glycan array binding signal (z-score),Fuc(a1-2)Gal6S(b1-4)Glc,-0.325
same,glycan array binding signal (z-score),[17],-0.296
same,glycan array binding signal (z-score),Fuc(a1-2)[Gal(a1-3)]Gal,-0.249
same,glycan array binding signal (z-score),[18],-0.299
same,glycan array binding signal (z-score),[19],-0.333
same,glycan array binding signal (z-score),[20],-0.329
same,glycan array binding signal (z-score),[21],-0.342
same,glycan array binding signal (z-score),[22],-0.216
same,glycan array binding signal (z-score),[23],-0.354
same,glycan array binding signal (z-score),[24],-0.307
same,glycan array binding signal (z-score),[25],-0.343
same,glycan array binding signal (z-score),[26],-0.341
same,glycan array binding signal (z-score),[27],-0.348
same,glycan array binding signal (z-score),[28],-0.035
same,glycan array binding signal (z-score),[29],-0.321
same,glycan array binding signal (z-score),[30],-0.23
same,glycan array binding signal (z-score),[31],0.192
same,glycan array binding signal (z-score),[32],-0.339
same,glycan array binding signal (z-score),[33],-0.307
same,glycan array binding signal (z-score),[34],-0.317
same,glycan array binding signal (z-score),[35],-0.201
